According to PubChem BioAssay AID624417 (National Center for Advancing Translational Sciences (NCATS), 2012):
Out of some 410,000 compounds screened, about 6,400 (1.6%) were called active. The shares of active, inactive and inconclusive entries below differ from those in the screen. Calls follow the shape of the dose curve; as a rule, active = well fitted inhibition curve with a large enough effect; inconclusive = small, poorly fitted or top-dose-only effect; inactive = no such curve, though single readings can be large or run the other way. Potencies of inconclusive entries are left out as doubtful fits.

What follows are molecules tested against Glucagon-like peptide 1 receptor (Homo sapiens) (UniProt P43220) (assay: qHTS of GLP-1 Receptor Inverse Agonists (Inhibition Mode)). Conditions: HEK293 GLP-1R CRE-luciferase, luminescence, 24 h, GLP-1R form is constitutively active; activity change, negative = inhibition: at 38.3 µM (top of the series) unless noted.
How it was run: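 Constitutively active GLP-1R drives a cAMP-responsive luciferase in stably transfected HEK293 cells; test compounds are added after overnight (12 h) attachment and left 24 hr, and signal loss in luminescence marks inhibition.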
% is scaled to controls: 0 for no effect and ±100 for the full control effect; potency is read from the fitted curve at half-maximal effect; tags tell the direction and shape of the fitted curve.
Also: nearly all actives have a fitted effect of over 55% in size.

Chain of UniProt P43220 (P43220 whole entry, looked up): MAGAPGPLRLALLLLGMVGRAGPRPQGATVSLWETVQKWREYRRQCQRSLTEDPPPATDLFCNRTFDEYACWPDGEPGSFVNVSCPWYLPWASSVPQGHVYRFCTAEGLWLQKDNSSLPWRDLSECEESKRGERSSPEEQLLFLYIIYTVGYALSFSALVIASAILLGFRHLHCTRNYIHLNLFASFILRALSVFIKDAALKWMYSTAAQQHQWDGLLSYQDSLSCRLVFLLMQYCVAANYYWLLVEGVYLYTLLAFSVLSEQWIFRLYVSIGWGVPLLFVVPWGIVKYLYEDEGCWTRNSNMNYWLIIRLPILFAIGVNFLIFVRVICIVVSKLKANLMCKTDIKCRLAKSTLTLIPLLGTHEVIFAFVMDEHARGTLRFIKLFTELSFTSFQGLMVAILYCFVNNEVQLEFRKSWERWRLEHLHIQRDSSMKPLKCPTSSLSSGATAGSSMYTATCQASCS

Row | Compound | Potency | activity change, negative = inhibition
1 | C[N+]1(CC(=O)Nc2ccccc2Cl)CCN(C(=O)c2cccs2)CC1 | inconclusive [inhibitor, full curve, poor fit] | –
2 | COc1cccc(CC(=O)Nc2ccc3nc(Nc4cccc(C(F)(F)F)c4)cc(C)c3c2)c1 | inconclusive [inhibitor, partial curve, poor fit] | –
3 | CCOC(=O)c1c(-c2ccc(F)cc2)csc1NC(=O)CCN1C(=O)c2ccccc2C1=O | inconclusive [inhibitor, full curve] | –
4 | CCN(CC)CCCN1C(=O)C2C(C(=O)Nc3ccc(C(C)C)cc3)C3C=CC2(O3)C1C(=O)NC1CCCCC1 (centres undefined) | inconclusive [inhibitor, single point] | –
5 | Clc1ccc(CSc2nnc(-c3ccccn3)n2Cc2cccs2)cc1Cl | inconclusive [inhibitor, single point] | –
6 | CN(CC(=O)Nc1ccc(Cl)cc1)C(=O)CCC1CCCC1 | inconclusive [inhibitor, full curve] | –
7 | Cc1cc(C)nc(NC(=O)/C=C/c2ccc(Cl)cc2Cl)c1 | inconclusive [inhibitor, single point] | –
8 | CCOC(=O)c1ccc(NC(=S)N(CCCN2CCCC(C)C2)Cc2cccs2)cc1 (centres undefined) | inconclusive [inhibitor, partial curve, poor fit] | –
9 | CCCCCCc1nc(C(N)=O)c2[nH]c(=O)n(-c3ccc(OC)cc3OC)c2n1 | inconclusive [inhibitor, single point] | –
10 | Cc1ccccc1NC(=O)CCn1nc(-c2ccc(Cl)cc2)c2ccccc2c1=O | – | inactive: -8.55%
11 | CCn1nc(C(=O)N2CCN(Cc3nc4ccccc4s3)CC2)c2ccccc2c1=O | inconclusive [inhibitor, single point] | –
12 | S=C(NCCSCc1c(Cl)cccc1Cl)Nc1ccccc1 | inconclusive [inhibitor, single point] | –
13 | Cc1ccc(CN2C(=O)c3ccccc3NC2c2cc(Br)ccc2O)cc1 (centres undefined) | inconclusive [inhibitor, partial curve, poor fit] | –
14 | Cc1ccc(CN2CCN(c3cccc4[nH]ccc34)CC2)cc1 | – | inactive: -24.2%
15 | CC1(C(=O)Nc2ccccc2Br)CCN1C(=O)Cc1ccc(Cl)cc1Cl (centres undefined) | inconclusive [inhibitor, single point] | –
16 | COc1cccc(Cn2c(-c3cccs3)noc2=O)c1 | – | inactive: 0%
17 | CC(C)(C)OC(=O)N[C@H](C(=O)OC(C)(C)C)c1ccc(Br)cc1 | active: 10 µM | –
18 | Cc1ccc(N(Cc2cccs2)C(=O)c2ccccc2[N+](=O)[O-])cc1 | inconclusive [inhibitor, single point] | –
19 | COc1ccc(-n2c(=S)[nH]c3cc(C(=O)NCc4ccc(F)cc4)ccc3c2=O)c(OC)c1 | inconclusive [inhibitor, single point] | –
20 | O=C(Cc1c(F)cccc1Cl)Nc1ccccc1-c1ccccc1 | inconclusive [inhibitor, partial curve, poor fit] | –
21 | COc1ccc(CCN(C)CCCC(C#N)(c2cc(OC)c(OC)c(OC)c2)C(C)C)cc1OC (centres undefined) | inconclusive [inhibitor, partial curve, poor fit] | –
22 | O=C(c1ccc(F)cc1)C1CCN(Cc2ccccc2)CC1 | – | inactive: -13.3%

Row | Compound | Potency | activity change, negative = inhibition
23 | O=C(NCCSCc1ccccc1)c1ccc(C2SCC(=O)N2Cc2ccccc2)cc1 (centres undefined) | inconclusive [inhibitor, partial curve, poor fit] | –
24 | Cc1ccccc1Cn1c(C)c(CNCCCc2ccccc2)c(C(=O)O)c1C | – | inactive: -2.73%
25 | CCN(CC)CC(O)COc1ccc2c(c1)c(C(C)=O)c(C)n2-c1ccccc1 (centres undefined) | inconclusive [inhibitor, partial curve, poor fit] | –
26 | Cc1ccccc1Nc1c(-c2c[nH]c3ccccc23)nc2cccc(C)n12 | – | inactive: 6.6%
27 | Cc1ccc(C(=O)N/N=C/c2ccc(-c3cccc(Cl)c3)o2)cn1 | active: 7.94 µM | –
28 | O=[N+]([O-])c1ccc(-[n+]2ccc3ccccc3c2)c([N+](=O)[O-])c1 | inconclusive [inhibitor, single point] | –
29 | Cc1ccc(C)c(N2CCN(C(=O)c3ccc(Cn4c(=S)[nH]c5ccc(N6CCOCC6)cc5c4=O)cc3)CC2)c1 | inconclusive [inhibitor, partial curve, poor fit] | –
30 | COc1ccc(S(=O)(=O)N2CCN(CC(=O)Nc3cc(OC)cc(OC)c3)CC2)cc1 | – | inactive: 0%
31 | CCc1cccc2c(C(=O)COC(=O)c3ccccc3)c[nH]c12 | inconclusive [inhibitor, single point] | –
32 | O=C(Nc1ccccc1)C(=O)Nc1cccnc1 | inconclusive [inhibitor, single point] | –
33 | CCOc1ccccc1NC(=O)C1CCCCN1S(=O)(=O)c1ccccc1 (centres undefined) | inconclusive [inhibitor, single point] | –
34 | N=c1c2c(-c3ccccc3)c(-c3ccccc3)n(Cc3ccccc3)c2ncn1CCO | inconclusive [inhibitor, partial curve, poor fit] | –
35 | O=C(Nc1ccccc1C(=O)N1CCCCC1)c1ccc(Cl)cc1Cl | inconclusive [inhibitor, single point] | –
36 | COC(=O)c1cc(C(=O)Nc2nnc(CC(C)C)s2)cc([N+](=O)[O-])c1 | – | inactive: 5.7%
37 | Cc1ccc(C)c(N2CCN(S(=O)(=O)c3ccc4c(c3)NC(=O)CO4)CC2)c1 | inconclusive [inhibitor, single point] | –
38 | CC(C)(C)c1ccc(NC(=S)NCc2cccnc2)cc1 | inconclusive [inhibitor, partial curve, poor fit] | –
39 | CCCN1CCc2c(sc(NC(=O)Cc3ccc(F)cc3)c2C(N)=O)C1 | – | inactive: -13.7%
40 | CCCN1CCC(=NNc2ccc(S(=O)(=O)N3CCOCC3)cc2[N+](=O)[O-])CC1 | inconclusive [inhibitor, full curve, poor fit] | –
41 | CCCN(CCC)C(=O)Nc1cc(Cl)ccc1OC | inconclusive [inhibitor, single point] | –
42 | Cc1ccc(CCNS(=O)(=O)c2cc(Br)cnc2N)cc1 | inconclusive [inhibitor, single point] | –
43 | CCCCCCN=C1CC(C)(C)CC(=O)/C1=C(/O)CCC | inconclusive [inhibitor, partial curve, poor fit] | –
44 | CCOC(=O)c1ccccc1NC(=O)CSc1ncc(C(=O)OCC)c(N)n1 | – | inactive: 4.68%

Row | Compound | Potency | activity change, negative = inhibition
45 | CCOC(=O)N1CCN(Cc2nc(-c3cccc(Cl)c3)no2)CC1 | inconclusive [inhibitor, single point] | –
46 | CCC1CCCCN1C(=O)COc1ccc(N(C)S(=O)(=O)c2ccc(C)cc2)cc1 (centres undefined) | active: 3.16 µM | –
47 | Cc1ccc2nc3c(c(Nc4ccc(C)c(C)c4)c2c1)CCC3 | inconclusive [inhibitor, partial curve, poor fit] | –
48 | COc1cc(OC)c(N(C)S(=O)(=O)c2cccc(C(=O)OCc3c(C)noc3C)c2)cc1Cl | inconclusive [inhibitor, single point] | –
49 | Cc1ccc(C)c(C(C)NC(=O)Cc2cccs2)c1 (centres undefined) | inconclusive [inhibitor, partial curve] | –
50 | COc1cc(NC(=O)COc2ccccc2[N+](=O)[O-])ccc1NC(=O)c1cccs1 | inconclusive [inhibitor, partial curve, poor fit] | –
51 | Cc1ccc(C(=O)Nc2cccc(C(=O)N/N=C/c3ccc(O)cc3)c2)cc1 | inconclusive [inhibitor, partial curve] | –
52 | OC(COCC1COc2ccccc2O1)CN1CCN(c2ccccc2F)CC1 (centres undefined) | inconclusive [inhibitor, partial curve, poor fit] | –
53 | CN(CC(=O)Nc1ccccc1Br)C(=O)CN1CCN(Cc2ccc(Cl)cc2)CC1 | inconclusive [inhibitor, partial curve, poor fit] | –
54 | CCn1cc2nc(SCC(=O)Nc3ccc(OC)cc3OC)n(Cc3ccc(Cl)cc3)c(=O)c2n1 | inconclusive [inhibitor, single point] | –
55 | CCOCCc1nn2c(=O)cc(COC(=O)c3ccccc3NC(=O)c3ccc(C)cc3)nc2s1 | – | inactive: 14.4%
56 | CSc1sccc1/C=N/NC(=O)c1ccncc1 | – | inactive: 12%
57 | Fc1ccccc1Nc1nc(-c2ccncc2)nc2ccccc12 | inconclusive [inhibitor, single point] | –
58 | Cc1c(C(=O)O)cccc1-c1ccc(/C=N/Nc2ccc(Br)cc2)o1 | inconclusive [inhibitor, full curve] | –
59 | O=C(Nc1cccc(Cl)c1)Nc1ccon1 | inconclusive [inhibitor, single point] | –
60 | CCOC(=O)[C@]12CCCC=C1N(CCC1=CCCCC1)C(=O)[C@H](CC(=O)NCCCCc1ccccc1)C2 | inconclusive [inhibitor, single point] | –
61 | Cc1cc(C(=O)CSc2nnnn2C)c(C)n1Cc1ccco1 | – | inactive: -10.4%
62 | CCOC(=O)c1ccc(NC(=O)CSc2ncc(S(=O)(=O)c3ccc(C)c(Cl)c3)c(=O)[nH]2)cc1 | – | inactive: -1.16%
63 | CN(C)c1ccc(NC(=O)Cn2cc(S(=O)(=O)Cc3ccccc3Cl)c3ccccc32)cc1 | inconclusive [inhibitor, partial curve] | –
64 | CC(C)NCC(O)COc1c(F)cc(Br)cc1F (centres undefined) | inconclusive [inhibitor, partial curve, poor fit] | –
